The subject of this test is SARS-CoV-2. As to the kind of experiment: Syrian hamster model of COVID-19, intraperitoneal treatment. The conditions noted are these: 2 dpi; IP; 2 at 110 mg/kg/day qd, Molnupiravir 220 mg/kg/day bid.

Structures are written as SMILES.

As to `Nc1cc2c(ncn2[C@@H]2O[C@H](CO)[C@@H](O)[C@H]2O)c(=O)[nH]1` [Compound 2, 3-Deazaguanosine], the “Viral titer in lungs versus vehicle controls” value is reported as “lower than that in those of vehicle controls”.

With `CC(C)C(=O)OC[C@H]1O[C@@H](n2ccc(NO)nc2=O)[C@H](O)[C@@H]1O` [Molnupiravir, reference compound], the “Viral titer in lungs versus vehicle controls” value is “lower than that in those of vehicle controls”.

The values are drawn from PMC11960675, “3-Deazaguanosine inhibits SARS-CoV-2 viral replication and reduces the risk of COVID-19 pneumonia in hamster” (iScience, 2025).
